Patent US20210388082A1 (NEWBIO THERAPEUTICS, published 2021)

T1: CD79b on the surface of human lymphoma cell lines (human, UniProt P40259 29-229)
T1 sequence (looked up): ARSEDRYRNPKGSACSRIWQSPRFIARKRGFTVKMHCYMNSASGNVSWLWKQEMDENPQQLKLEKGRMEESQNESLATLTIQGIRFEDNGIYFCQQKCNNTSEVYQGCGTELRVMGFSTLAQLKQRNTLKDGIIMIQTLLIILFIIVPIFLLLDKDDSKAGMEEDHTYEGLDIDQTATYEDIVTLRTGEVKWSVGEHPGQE

T2: recombinant human CD79b extracellular domain protein (human, UniProt P40259 29-159)
T2 construct: Bought protein; also called CD79b ECD; human CD79b-ECD
T2 sequence: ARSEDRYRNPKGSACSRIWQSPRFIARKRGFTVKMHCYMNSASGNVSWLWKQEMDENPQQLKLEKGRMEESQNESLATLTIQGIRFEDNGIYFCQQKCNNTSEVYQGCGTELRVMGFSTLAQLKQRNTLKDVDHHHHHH


Assays:
[1] = target: T1, CD79b on the surface of human lymphoma …; test: cell-based or functional assay
[2] = target: T2, recombinant human CD79b extracellular …; test: indirect ELISA, plate coated with CD79b antigen
Procedure: An ELISA anti-antibody was added to bind with the antibody or ADC antibody bound to the solid phase antigen, and unbound anti-antibody was removed by washing. Substrate solution was added, and then the optical density (OD) value at 450 nm/630 nm was read with a microplate reader T, based on which a curve was plotted, and the EC₅₀ was calculated.

Row | inhibition of cell proliferation IC50, Ramos [1] [µg/mL] | EC50 [2] [µg/mL] | Binder
1 | 0.005 | 0.0502 | AS11259-ADC-006 (other, DAR 4.1, linker-drug 6 on cysteines freed by TCEP reduction; positions not given, Antibody-drug conjugate of AS11259 with linker-drug 6; average DAR 4.1) heavy: QVQLVQSGAEVKKPGSSVKVSCKTSGNTFTSYGINWVKQAPGQGLEWIGEIFPRSGNIYYNEKFKGRVTITADKSTSTAYMELSSLRSEDTAVYYCAKGGTGDFDYWGQGTLVTVSS[human IgG1 constant region left out] light: DVVMTQSPLSLPVTLGQPASISCRSSQNIVHSDGNTYLEWYQQRPGQSPRLLIYKVSFRLSGVPDRFSGSGSGTDFTLKISRVEAEDVGVYYCFQGSHVPWTFGGGTKVEIKRTVAAPSVFIFPPSDEQLKSGTASVVCLLNNFYPREAKVQWKVDNALQSGNSQESVTEQDSKDSTYSLSSTLTLSKADYEKHKVYACEVTHQGLSSPVTKSFNRGEC
2 | 0.0024 | 0.029 | AS11259-ADC-008 (other, DAR 4.1, linker-drug 8 on cysteines freed by TCEP reduction; positions not given, Antibody-drug conjugate of AS11259 with linker-drug 8; average DAR 4.1) heavy: QVQLVQSGAEVKKPGSSVKVSCKTSGNTFTSYGINWVKQAPGQGLEWIGEIFPRSGNIYYNEKFKGRVTITADKSTSTAYMELSSLRSEDTAVYYCAKGGTGDFDYWGQGTLVTVSS[human IgG1 constant region left out] light: DVVMTQSPLSLPVTLGQPASISCRSSQNIVHSDGNTYLEWYQQRPGQSPRLLIYKVSFRLSGVPDRFSGSGSGTDFTLKISRVEAEDVGVYYCFQGSHVPWTFGGGTKVEIKRTVAAPSVFIFPPSDEQLKSGTASVVCLLNNFYPREAKVQWKVDNALQSGNSQESVTEQDSKDSTYSLSSTLTLSKADYEKHKVYACEVTHQGLSSPVTKSFNRGEC
3 | 0.0081 | 0.0629 | AS11259-ADC-007 (other, linker-drug 7 on cysteines freed by TCEP reduction; positions not given, Antibody-drug conjugate of AS11259 with linker-drug 7; DAR not detected) heavy: QVQLVQSGAEVKKPGSSVKVSCKTSGNTFTSYGINWVKQAPGQGLEWIGEIFPRSGNIYYNEKFKGRVTITADKSTSTAYMELSSLRSEDTAVYYCAKGGTGDFDYWGQGTLVTVSS[human IgG1 constant region left out] light: DVVMTQSPLSLPVTLGQPASISCRSSQNIVHSDGNTYLEWYQQRPGQSPRLLIYKVSFRLSGVPDRFSGSGSGTDFTLKISRVEAEDVGVYYCFQGSHVPWTFGGGTKVEIKRTVAAPSVFIFPPSDEQLKSGTASVVCLLNNFYPREAKVQWKVDNALQSGNSQESVTEQDSKDSTYSLSSTLTLSKADYEKHKVYACEVTHQGLSSPVTKSFNRGEC
4 | 0.0102 | 0.0236 | AS11259-ADC-011 (other, DAR 2.1, linker-drug 10 on cysteines freed by TCEP reduction; positions not given, Antibody-drug conjugate of AS11259 with linker-drug 10; average DAR 2.1) heavy: QVQLVQSGAEVKKPGSSVKVSCKTSGNTFTSYGINWVKQAPGQGLEWIGEIFPRSGNIYYNEKFKGRVTITADKSTSTAYMELSSLRSEDTAVYYCAKGGTGDFDYWGQGTLVTVSS[human IgG1 constant region left out] light: DVVMTQSPLSLPVTLGQPASISCRSSQNIVHSDGNTYLEWYQQRPGQSPRLLIYKVSFRLSGVPDRFSGSGSGTDFTLKISRVEAEDVGVYYCFQGSHVPWTFGGGTKVEIKRTVAAPSVFIFPPSDEQLKSGTASVVCLLNNFYPREAKVQWKVDNALQSGNSQESVTEQDSKDSTYSLSSTLTLSKADYEKHKVYACEVTHQGLSSPVTKSFNRGEC
5 | 0.0132 | 0.0314 | AS11259-ADC-0012 (other, DAR 1.7, linker-drug 1 (BMP-vcMMAE) on cysteines freed by partial reduction; positions not given; linker-drug 1 (BMP-vcMMAE) on cysteines freed by partial reduction (an average of two pairs of disulfide bonds reduced); positions not given, average DAR 1.7; Printed once as AS11250-ADC-0012; also called AS11250-ADC-0012) heavy: QVQLVQSGAEVKKPGSSVKVSCKTSGNTFTSYGINWVKQAPGQGLEWIGEIFPRSGNIYYNEKFKGRVTITADKSTSTAYMELSSLRSEDTAVYYCAKGGTGDFDYWGQGTLVTVSS[human IgG1 constant region left out] light: DVVMTQSPLSLPVTLGQPASISCRSSQNIVHSDGNTYLEWYQQRPGQSPRLLIYKVSFRLSGVPDRFSGSGSGTDFTLKISRVEAEDVGVYYCFQGSHVPWTFGGGTKVEIKRTVAAPSVFIFPPSDEQLKSGTASVVCLLNNFYPREAKVQWKVDNALQSGNSQESVTEQDSKDSTYSLSSTLTLSKADYEKHKVYACEVTHQGLSSPVTKSFNRGEC
6 | 0.0039 | 0.0232 | AS11259-ADC-010 (other, DAR 4.0, linker-drug 9 on cysteines freed by TCEP reduction; positions not given, Antibody-drug conjugate of AS11259 with linker-drug 9; average DAR 4.0) heavy: QVQLVQSGAEVKKPGSSVKVSCKTSGNTFTSYGINWVKQAPGQGLEWIGEIFPRSGNIYYNEKFKGRVTITADKSTSTAYMELSSLRSEDTAVYYCAKGGTGDFDYWGQGTLVTVSS[human IgG1 constant region left out] light: DVVMTQSPLSLPVTLGQPASISCRSSQNIVHSDGNTYLEWYQQRPGQSPRLLIYKVSFRLSGVPDRFSGSGSGTDFTLKISRVEAEDVGVYYCFQGSHVPWTFGGGTKVEIKRTVAAPSVFIFPPSDEQLKSGTASVVCLLNNFYPREAKVQWKVDNALQSGNSQESVTEQDSKDSTYSLSSTLTLSKADYEKHKVYACEVTHQGLSSPVTKSFNRGEC
